Assay results reported in PMC4336329 (PLoS ONE, 2015).
In all, about 310,000 compounds went through this assay and about 2,200 (0.71%) showed an effect of 50% or more. The effect is printed as a negative number. The list shows a part of the results.

target: human ether-à-go-go-related gene (hERG) potassium channel (human, UniProt Q12809); experiment: primary screen, population patch clamp on CHO cells stably expressing hERG
Sequence (Q12809 whole entry, looked up): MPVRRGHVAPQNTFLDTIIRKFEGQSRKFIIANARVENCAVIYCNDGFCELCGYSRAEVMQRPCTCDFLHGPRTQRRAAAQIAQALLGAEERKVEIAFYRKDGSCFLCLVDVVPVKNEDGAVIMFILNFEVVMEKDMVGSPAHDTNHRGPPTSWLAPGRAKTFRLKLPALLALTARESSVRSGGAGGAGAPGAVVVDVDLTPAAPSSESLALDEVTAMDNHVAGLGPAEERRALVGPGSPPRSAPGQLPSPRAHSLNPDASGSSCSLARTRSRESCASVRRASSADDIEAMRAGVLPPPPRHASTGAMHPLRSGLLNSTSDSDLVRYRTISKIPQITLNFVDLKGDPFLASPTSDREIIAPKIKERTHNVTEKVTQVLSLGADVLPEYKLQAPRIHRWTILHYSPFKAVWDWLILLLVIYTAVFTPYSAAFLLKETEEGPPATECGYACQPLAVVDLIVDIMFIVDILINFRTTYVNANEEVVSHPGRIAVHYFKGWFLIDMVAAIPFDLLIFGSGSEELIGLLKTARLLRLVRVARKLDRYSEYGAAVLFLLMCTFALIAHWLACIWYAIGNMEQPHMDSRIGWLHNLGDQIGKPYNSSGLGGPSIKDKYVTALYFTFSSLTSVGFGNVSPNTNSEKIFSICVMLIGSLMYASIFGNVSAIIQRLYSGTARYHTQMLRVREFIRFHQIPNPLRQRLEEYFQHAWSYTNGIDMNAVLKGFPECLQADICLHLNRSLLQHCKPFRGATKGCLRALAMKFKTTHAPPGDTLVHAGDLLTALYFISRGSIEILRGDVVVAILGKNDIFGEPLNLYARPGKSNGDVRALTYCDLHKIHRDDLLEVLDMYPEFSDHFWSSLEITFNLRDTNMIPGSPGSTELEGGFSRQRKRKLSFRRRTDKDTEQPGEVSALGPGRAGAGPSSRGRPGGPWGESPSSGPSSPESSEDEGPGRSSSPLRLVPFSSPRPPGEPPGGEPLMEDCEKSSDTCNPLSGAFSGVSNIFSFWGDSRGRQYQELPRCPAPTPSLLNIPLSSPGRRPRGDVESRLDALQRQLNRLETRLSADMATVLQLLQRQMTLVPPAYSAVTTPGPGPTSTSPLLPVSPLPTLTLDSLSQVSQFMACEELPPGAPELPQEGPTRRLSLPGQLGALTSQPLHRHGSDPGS

Structure (SMILES) | hERG current change (%, negative = inhibition) at 1uM [%]
CCN(CC)CCOC(=O)c1ccc(Cl)cc1.Cl | -3.82
COc1ccc(CN(C)C(=O)c2cnc(C)cn2)c(OC)c1OC | 16.8
O=C1/C(=C/c2ccncc2)SC(=S)N1C1CCS(=O)(=O)C1 (stereo not drawn) | 14.1
CCOc1ccc(C(=O)COC(=O)c2cccc(-n3cnnn3)c2)cc1 | -2.87
Nc1ccc(C(=O)NNC(=O)C2COc3ccccc3O2)cc1[N+](=O)[O-] (stereo not drawn) | -1.72
O=C1COc2ccc(C(=O)COC(=O)c3cc(S(=O)(=O)NCc4ccccc4)ccc3O)cc2N1 | 4.84
Cc1nn(-c2ccccc2)c2c1C(c1ccc3c(c1)OCO3)SCC(=O)N2 (stereo not drawn) | 12.5
O=C(Cc1ccccc1)Nc1ccccc1N1CCCC1 | 14.7
Cc1ccc2ccccc2c1NC(=O)CNC1CCCCC1.[O-][Cl+3]([O-])([O-])O | 14.8
CCCn1c2c(c(O)c(C(=O)Nc3nccs3)c1=O)CCCC2 | 1.07
C=CCN1CC[C@]23c4c5ccc(O)c4O[C@H]2/C(=N/NC(=O)c2ccccc2)CC[C@@]3(O)[C@H]1C5 | -40.1
CC(C)=CC(=O)OCC(=O)Nc1ccc(Cl)cc1 | 3.01
COc1ccc(CC(=O)N2CCN(c3ccccc3)CC2)cc1OC | 17.8
COc1ccc([N+](=O)[O-])cc1NC(=O)c1cc(C)c(C)o1 | 7.29
CC(C)c1c(O)nc(SCCN(C)C)[nH]c1=O.Cl | 8.81
Cc1ccc2c(c1)N(CC(=O)N1CCCC1)C(=O)c1cccnc1O2 | 5.54
COc1cc(C(=O)NCC(=O)N/N=C\C(C)=C/c2ccccc2)cc(OC)c1OC | 9.29
CN1CC(=O)N(CC(=O)NCc2ccc3c(c2)OCO3)C1=O | -0.832
CCOc1ccc(N(CC(=O)Nc2cccnc2)S(C)(=O)=O)cc1 | 7.6
CC1CCCN(CC(=O)Nc2cccc([N+](=O)[O-])c2)C1 (stereo not drawn) | 0.917
Cn1c(=O)c2sc3c(c2n(CC(=O)Nc2ccccc2)c1=O)COC(C)(C)C3 | 13.8
COc1ccc(-n2c(SCC(=O)N/N=C/c3ccccc3OCC(=O)O)nc3ccccc3c2=O)cc1 | 11.6
O=C(c1ccc(Cl)nc1)N1CCN(S(=O)(=O)c2ccccc2)CC1 | 7.52

Structure (SMILES) | hERG current change (%, negative = inhibition) at 1uM [%]
CN(Cc1cccc(F)c1)C(=O)CN1CCN(S(=O)(=O)c2ccc3c(c2)OCCCO3)CC1 | 14.5
COC(=O)CCn1[nH]c(=O)c2ccccc2c1=O | 12.6
COc1ccccc1CNC(=O)COC(=O)C1=COCCO1 | 14.9
O=c1c2cc(N3CCOCC3)ccc2[nH]c(=S)n1CC1CCCO1 (stereo not drawn) | -3.92
Cc1sc2nc(N)sc2c1C | 6.77
CCCNC(=O)CN1CCC(c2nc3ccccc3[nH]2)CC1 | 21.5
CN(C)c1ccc(S(=O)(=O)NCC(=O)OCC(=O)Nc2cccc(Cl)c2)cc1[N+](=O)[O-] | 1.08
Cc1ccc2c(c1)C(N1CCCC1=O)CC(c1ccco1)N2 (stereo not drawn) | 3.23
COc1ccc(COC(=O)N/N=C/c2cccs2)cc1 | 11.1
COc1ccc2oc(C(=O)NC3CCCCC3)c(C)c2c1 | 4.78
Oc1c(Br)cc(Br)cc1C=Nc1ccc2c(c1)OCO2 | 8.24
COC(=O)c1cc(S(=O)(=O)Nc2cccc(C)c2C)cn1C | 13.5
CCOc1ccc(S(=O)(=O)Nc2ccc(C(=O)NCCCN3CCCC3=O)cc2)cc1 | 4.1
C=CCOc1ccc(CNc2nn[nH]n2)cc1OC | 9.95
C/C(CS(=O)(=O)c1ccccc1)=N\O | 8.7
COCCCn1cnc2oc3nc4ccccc4nc3c2c1=O | 5.49
COC(=O)c1sccc1NC(=O)c1csc(C)c1 | 9.14
COc1ccc(OC)c(NC(=O)CSc2nnnn2-c2ccccc2F)c1 | 13.1
Cc1ccc(-n2[nH]c(C)c(/C=N/Nc3ccc([N+](=O)[O-])cc3[N+](=O)[O-])c2=O)cc1 | 10.7
Cc1ccc(CN2CC(C(=O)N3CCN(S(=O)(=O)c4cccc(F)c4)CC3)CC2=O)cc1 (stereo not drawn) | -9.62
Cc1cc(=O)oc2cc(OCC(=O)N3CCN(C(=O)C4COc5ccccc5O4)CC3)c(Cl)cc12 (stereo not drawn) | 0.472
O=C(Nc1ccccc1)N(CCN1CCOCC1)Cc1cccc(Cl)c1 | 1.44
